Experimental data from the supplement of paper PMC4967469.

Assays:
Assay in all cases: Viability of human cancer cell lines after 72 h of drug (GDSC screen)
Docetaxel = compound: CC(=O)O[C@@]12CO[C@@H]1C[C@H](O)[C@@]1(C)C(=O)[C@H](O)C3=C(C)[C@@H](OC(=O)[C@H](O)[C@@H](NC(=O)OC(C)(C)C)c4ccccc4)C[C@@](O)([C@@H](OC(=O)c4ccccc4)[C@H]21)C3(C)C [Docetaxel]; settings: top dose 0.0125 µM
Experimental: (§1)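 Human cancer cell lines in 384-well plates, medium with 10% serum, drug for 72 h over a 256-fold dose range (nine 2-fold or five 4-fold steps up to the top dose). Adherent lines were fixed and stained with the nucleic acid dye Syto60, suspension lines read with resazurin; signal relative to control wells, capped at 0 and 100%. One two-parameter sigmoid per drug and line, fitted in a mixed model over all curves with the slope shared within a line.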

AMG-706 = compound: CC1(C)CNc2cc(NC(=O)c3cccnc3NCc3ccncc3)ccc21 [AMG-706]; settings: top dose 2 µM; top dose inferred
Experimental: as §1

Cyclopamine = compound: CC1=C2C[C@H]3[C@@H](CC=C4C[C@@H](O)CC[C@@]43C)[C@@H]2CC[C@]12O[C@@H]1C[C@H](C)CN[C@H]1[C@H]2C [Cyclopamine]; settings: top dose 16 µM; top dose inferred
Experimental: as §1

JNK Inhibitor VIII = compound: CCOc1nc(NC(=O)Cc2cc(OC)ccc2OC)cc(N)c1C#N [JNK Inhibitor VIII]; settings: top dose 10 µM; top dose inferred
Experimental: as §1

FTI-277 = compound: COC(=O)[C@H](CCSC)NC(=O)c1ccc(NC[C@@H](N)CS)cc1-c1ccccc1 [FTI-277]; settings: top dose 1.024 µM; top dose inferred
Experimental: as §1

OSI-906 = compound: C[C@]1(O)C[C@@H](c2nc(-c3ccc4ccc(-c5ccccc5)nc4c3)c3c(N)nccn32)C1 [OSI-906]; settings: top dose 2.56 µM; top dose inferred
Experimental: as §1

JQ1 = compound: Cc1sc2c(c1C)C(c1ccc(Cl)cc1)=N[C@@H](CC(=O)OC(C)(C)C)c1nnc(C)n1-2 [JQ1]
Experimental: as §1

CGP-60474 = compound: OCCCNc1cc(-c2ccnc(Nc3cccc(Cl)c3)n2)ccn1 [CGP-60474]; settings: top dose 0.256 µM; top dose inferred
Experimental: as §1

JNJ-26854165 = compound: c1ccc2c(CCNc3ccc(Nc4ccncc4)cc3)c[nH]c2c1 [JNJ-26854165]; settings: top dose 10 µM
Experimental: as §1

NSC-207895 = compound: CN1CCN(c2ccc([N+](=O)[O-])c3no[n+]([O-])c23)CC1 [NSC-207895]; settings: top dose 20 µM; top dose inferred
Experimental: as §1

YM155 = compound: COCC[n+]1c2c(n(Cc3cnccn3)c1C)C(=O)c1ccccc1C2=O [YM155]; settings: top dose 5.12 µM
Experimental: as §1

SB-715992 = compound: Cc1ccc(C(=O)N(CCCN)[C@@H](c2nc3cc(Cl)ccc3c(=O)n2Cc2ccccc2)C(C)C)cc1 [SB-715992]; settings: top dose 0.128 µM; top dose inferred
Experimental: as §1

Belinostat = compound: O=C(/C=C/c1cccc(S(=O)(=O)Nc2ccccc2)c1)NO [Belinostat]; settings: top dose 20 µM; top dose inferred
Experimental: as §1

[1] = top dose 2.56 µM, screen: GDSC drug entry 163
[2] = top dose 1 µM, screen: GDSC drug entry 1218, top dose inferred

Cell Line	AUC (Docetaxel)	IC50 (Docetaxel) [nM]	AUC (AMG-706)	IC50 (AMG-706) [nM]	AUC (Cyclopamine)	IC50 (Cyclopamine) [µM]	AUC (JNK Inhibitor VIII)	IC50 (JNK Inhibitor VIII) [µM]	AUC (FTI-277)	IC50 (FTI-277) [nM]	AUC (OSI-906)	IC50 (OSI-906) [nM]	AUC (JQ1; [1])	IC50 (JQ1; [1]) [nM]	AUC (CGP-60474)	IC50 (CGP-60474) [nM]	AUC (JQ1; [2])	IC50 (JQ1; [2]) [nM]	AUC (JNJ-26854165)	IC50 (JNJ-26854165) [µM]	AUC (NSC-207895)	IC50 (NSC-207895) [µM]	AUC (YM155)	IC50 (YM155) [nM]	AUC (SB-715992)	IC50 (SB-715992) [nM]	AUC (Belinostat)	IC50 (Belinostat) [nM]
DOHH-2 (B-cell lymphoma, suspension)	0.793	5.55	0.981	> 2000	0.786	6.71	0.977	> 10	0.979	> 1020	0.985	> 2560	0.613	325	0.593	28.6												
GA-10 (Burkitt lymphoma, suspension)	0.885	10	0.991	> 2000	0.89	13.4	0.991	> 10	0.991	> 1020			0.47	134	0.532	19.3	0.765	312	0.909	> 10								
GAK (melanoma, adherent)	0.828	7.19			0.989	> 16			0.975	> 1020	0.989	> 2560	0.894	> 2560	0.853	185	0.989	> 1000	0.903	> 10	0.963	> 20	0.231	55.5	0.977	> 128	0.544	1640
IM-9 (myeloma, suspension)	0.992	> 12.5	0.992	> 2000	0.989	> 16	0.99	> 10	0.985	> 1020	0.987	> 2560	0.941	> 2560	0.984	> 256	0.927	> 1000	0.974	> 10								
JAR (urogenital system, adherent)			0.986	> 2000	0.969	> 16	0.988	> 10	0.985	> 1020	0.988	> 2560	0.987	> 2560	0.756	86.1	0.985	> 1000	0.864	8.41	0.735	5.76	0.026	< 20	0.701	29.1	0.36	518
KMS-12-BM (myeloma, suspension)	0.729	3.03			0.99	> 16			0.99	> 1020	0.872	1740			0.792	94.3			0.875	7	0.901	17.9	0.015	< 20	0.711	27.8	0.177	170
LC-2-ad (lung adenocarcinoma, adherent)			0.924	> 2000	0.981	> 16	0.966	> 10	0.953	> 1020	0.732	750	0.595	294	0.525	18.7	0.983	> 1000	0.918	> 10	0.941	> 20	0.035	< 20	0.654	21.7	0.199	156
LXF-289 (lung adenocarcinoma, adherent)			0.911	> 2000	0.956	> 16	0.965	> 10	0.976	> 1020	0.938	> 2560	0.731	719	0.67	47.2	0.952	> 1000	0.835	6.39	0.98	> 20	0.039	< 20	0.726	34.6	0.459	969
MZ7-mel (melanoma, adherent)			0.977	> 2000	0.967	> 16	0.987	> 10	0.975	> 1020	0.98	> 2560	0.591	287	0.954	> 256	0.985	> 1000	0.838	7.11	0.896	> 20	0.15	25	0.972	> 128	0.259	249
Mo-T (hairy cell leukaemia, suspension)			0.987	> 2000	0.987	> 16	0.987	> 10	0.983	> 1020	0.985	> 2560	0.974	> 2560	0.96	> 256	0.986	> 1000	0.913	> 10	0.644	3.16	0.035	< 20	0.766	48.1	0.336	433
NCI-H23 (lung adenocarcinoma, adherent)			0.918	> 2000	0.988	> 16	0.959	> 10	0.985	> 1020	0.988	> 2560	0.953	> 2560	0.823	149	0.974	> 1000	0.844	7.06	0.949	> 20	0.027	< 20	0.98	> 128	0.464	999
NCI-H1581 (large cell lung carcinoma, semi-adherent)	0.716	3.02			0.984	> 16			0.99	> 1020	0.989	> 2560	0.972	> 2560	0.862	190	0.98	> 1000	0.898	> 10	0.956	> 20	0.023	< 20	0.861	94.7	0.304	372
NCI-H1648 (lung adenocarcinoma, adherent)			0.859	1820	0.955	> 16	0.924	> 10	0.981	> 1020	0.875	> 2560	0.858	2300	0.706	63.7	0.984	> 1000	0.872	> 10	0.943	> 20	0.107	< 20	0.653	21.9	0.33	407
NCI-H1963 (small cell lung carcinoma, suspension)	0.854	7.96			0.988	> 16			0.988	> 1020	0.976	> 2560	0.945	> 2560	0.739	68.9			0.991	> 10	0.917	> 20	0.342	125			0.94	> 20000
NCI-H1975 (lung adenocarcinoma, adherent)			0.978	> 2000	0.983	> 16	0.979	> 10	0.978	> 1020	0.784	1250	0.786	1280	0.709	68.3	0.98	> 1000	0.902	> 10	0.927	> 20	0.032	< 20	0.81	79.4	0.395	615
NKM-1 (acute myeloid leukaemia, suspension)			0.958	> 2000	0.984	> 16	0.983	> 10	0.983	> 1020	0.916	> 2560	0.629	368	0.749	84.9	0.835	685	0.617	1.33	0.8	10	0.027	< 20	0.553	11.2	0.246	226
RL95-2 (endometrium, adherent)	0.539	0.995			0.973	> 16			0.986	> 1020			0.808	1310	0.649	41.2	0.986	> 1000			0.849	14.8	0.031	< 20	0.957	> 128	0.325	408
SK-N-DZ (neuroblastoma, adherent)	0.876	12.1			0.987	> 16			0.985	> 1020	0.569	247	0.901	> 2560	0.832	160	0.969	> 1000	0.773	3.83	0.979	> 20	0.498	315	0.981	> 128	0.588	2170
TC-71 (Ewing sarcoma, adherent)			0.991	> 2000	0.992	> 16	0.992	> 10	0.989	> 1020	0.992	> 2560	0.99	> 2560	0.909	252	0.99	> 1000	0.891	8.23	0.988	> 20	0.016	< 20	0.687	24.1	0.251	282
TE-5 (oesophagus, adherent)			0.979	> 2000	0.984	> 16	0.98	> 10	0.97	> 1020	0.952	> 2560	0.682	560	0.736	85.1	0.981	> 1000	0.918	> 10	0.984	> 20	0.801	2960	0.924	> 128	0.979	> 20000
no-10 (glioma, adherent)	0.823	9.7			0.813	11.1			0.954	> 1020	0.97	> 2560	0.544	217	0.451	11.4	0.959	> 1000	0.832	8.46	0.972	> 20	0.037	< 20	0.93	> 128	0.575	2100

A lower IC50 marks a more sensitive line; fits outside the tested doses are given as limits. For AUC the same curve is integrated over the 256-fold range of doses and scaled to a fraction: 1 means no effect, lower means more sensitive. For some of these results: A top dose marked as inferred was derived from the fitted curves, not read from the paper. For some of these results: Where an entry number is given, a second screen of the drug exists; the two often differ.
